Test results as given in publication PMC8948191.
These are yes or no findings as the source states them, for the method shown. In cells and extracts the contact can be indirect. Some entries that bind do so weakly or less than the wild type. Where a sequence is shown, tags or fusion partners need not be part of it.

By UniProt entry, the sequences of proteins in these tests, tags left out.
UniProt Q9VQE0: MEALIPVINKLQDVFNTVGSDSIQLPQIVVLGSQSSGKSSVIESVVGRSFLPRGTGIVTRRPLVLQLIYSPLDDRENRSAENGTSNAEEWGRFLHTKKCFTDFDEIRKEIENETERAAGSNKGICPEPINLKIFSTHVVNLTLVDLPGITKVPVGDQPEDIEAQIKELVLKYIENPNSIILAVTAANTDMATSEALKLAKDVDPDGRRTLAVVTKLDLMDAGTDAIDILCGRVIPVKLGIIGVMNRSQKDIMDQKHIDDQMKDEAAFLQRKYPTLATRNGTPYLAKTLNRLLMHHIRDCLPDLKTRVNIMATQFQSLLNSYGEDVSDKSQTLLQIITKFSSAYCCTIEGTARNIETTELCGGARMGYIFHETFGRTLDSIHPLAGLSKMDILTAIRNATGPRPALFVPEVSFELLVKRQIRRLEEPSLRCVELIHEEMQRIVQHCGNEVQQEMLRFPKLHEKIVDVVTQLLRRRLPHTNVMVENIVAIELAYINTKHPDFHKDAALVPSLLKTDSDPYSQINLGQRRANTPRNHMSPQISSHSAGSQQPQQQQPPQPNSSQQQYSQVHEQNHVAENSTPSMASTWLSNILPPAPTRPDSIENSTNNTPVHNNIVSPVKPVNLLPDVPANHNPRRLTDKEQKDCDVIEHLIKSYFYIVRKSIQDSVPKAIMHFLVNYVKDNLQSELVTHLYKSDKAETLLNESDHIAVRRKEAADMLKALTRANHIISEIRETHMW

Columns and labels:
[1] = biological target: Myc-tagged Drp1 (Drosophila) (Drosophila) (UniProt Q9VQE0); experiment: co-IP; lysates (RIPA buffer) of Drosophila S2 cells transfected with tagged constructs; IP with mouse anti-FLAG or mouse anti-Myc antibody, Dynabeads Protein G; western blot
[2] = biological target: T1, FLAG-tagged Clu (Drosophila Clueless) (Drosophila) (UniProt A1ZAB5); experiment: as above
T1 sequence: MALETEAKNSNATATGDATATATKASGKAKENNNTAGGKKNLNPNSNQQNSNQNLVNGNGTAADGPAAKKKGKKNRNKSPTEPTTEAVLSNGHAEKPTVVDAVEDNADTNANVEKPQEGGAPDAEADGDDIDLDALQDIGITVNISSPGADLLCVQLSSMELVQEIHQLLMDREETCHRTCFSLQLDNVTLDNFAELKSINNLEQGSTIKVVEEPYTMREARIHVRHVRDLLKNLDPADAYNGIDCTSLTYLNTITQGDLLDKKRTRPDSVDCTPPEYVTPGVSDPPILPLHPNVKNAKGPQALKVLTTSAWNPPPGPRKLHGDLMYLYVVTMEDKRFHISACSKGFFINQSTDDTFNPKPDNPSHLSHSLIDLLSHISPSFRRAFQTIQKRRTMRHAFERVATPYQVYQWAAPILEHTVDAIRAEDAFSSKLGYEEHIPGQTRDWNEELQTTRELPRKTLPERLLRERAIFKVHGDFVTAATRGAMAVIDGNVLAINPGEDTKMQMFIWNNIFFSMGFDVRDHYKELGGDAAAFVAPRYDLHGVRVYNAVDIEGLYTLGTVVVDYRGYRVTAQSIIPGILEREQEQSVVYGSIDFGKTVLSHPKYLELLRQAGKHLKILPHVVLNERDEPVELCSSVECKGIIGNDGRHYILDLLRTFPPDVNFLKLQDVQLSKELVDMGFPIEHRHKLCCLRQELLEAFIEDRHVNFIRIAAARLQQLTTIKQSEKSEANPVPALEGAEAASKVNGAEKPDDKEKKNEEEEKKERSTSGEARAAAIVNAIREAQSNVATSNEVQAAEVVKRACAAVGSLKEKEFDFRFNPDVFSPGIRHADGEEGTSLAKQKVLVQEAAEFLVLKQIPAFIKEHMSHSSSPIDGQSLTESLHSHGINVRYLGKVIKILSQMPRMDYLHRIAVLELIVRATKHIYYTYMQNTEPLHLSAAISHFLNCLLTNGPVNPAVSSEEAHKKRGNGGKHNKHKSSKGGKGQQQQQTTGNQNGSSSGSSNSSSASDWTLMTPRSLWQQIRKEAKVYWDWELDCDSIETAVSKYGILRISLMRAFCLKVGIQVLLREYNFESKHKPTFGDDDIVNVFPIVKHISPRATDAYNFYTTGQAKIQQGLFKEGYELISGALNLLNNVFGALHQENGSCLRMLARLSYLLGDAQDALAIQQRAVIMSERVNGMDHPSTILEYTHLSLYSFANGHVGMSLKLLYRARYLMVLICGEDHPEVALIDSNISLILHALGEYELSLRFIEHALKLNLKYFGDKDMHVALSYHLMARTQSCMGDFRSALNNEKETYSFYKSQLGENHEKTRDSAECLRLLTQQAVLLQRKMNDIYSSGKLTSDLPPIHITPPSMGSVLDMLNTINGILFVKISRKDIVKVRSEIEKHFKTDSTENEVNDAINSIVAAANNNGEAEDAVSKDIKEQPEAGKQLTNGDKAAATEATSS

[3] = biological target: T2, FLAG-CLUH (human) (UniProt O75153); experiment: co-IP; lysates (RIPA buffer) of HeLa cells transfected with the indicated constructs; IP with mouse anti-FLAG antibody, Dynabeads Protein G; western blot
T2 sequence: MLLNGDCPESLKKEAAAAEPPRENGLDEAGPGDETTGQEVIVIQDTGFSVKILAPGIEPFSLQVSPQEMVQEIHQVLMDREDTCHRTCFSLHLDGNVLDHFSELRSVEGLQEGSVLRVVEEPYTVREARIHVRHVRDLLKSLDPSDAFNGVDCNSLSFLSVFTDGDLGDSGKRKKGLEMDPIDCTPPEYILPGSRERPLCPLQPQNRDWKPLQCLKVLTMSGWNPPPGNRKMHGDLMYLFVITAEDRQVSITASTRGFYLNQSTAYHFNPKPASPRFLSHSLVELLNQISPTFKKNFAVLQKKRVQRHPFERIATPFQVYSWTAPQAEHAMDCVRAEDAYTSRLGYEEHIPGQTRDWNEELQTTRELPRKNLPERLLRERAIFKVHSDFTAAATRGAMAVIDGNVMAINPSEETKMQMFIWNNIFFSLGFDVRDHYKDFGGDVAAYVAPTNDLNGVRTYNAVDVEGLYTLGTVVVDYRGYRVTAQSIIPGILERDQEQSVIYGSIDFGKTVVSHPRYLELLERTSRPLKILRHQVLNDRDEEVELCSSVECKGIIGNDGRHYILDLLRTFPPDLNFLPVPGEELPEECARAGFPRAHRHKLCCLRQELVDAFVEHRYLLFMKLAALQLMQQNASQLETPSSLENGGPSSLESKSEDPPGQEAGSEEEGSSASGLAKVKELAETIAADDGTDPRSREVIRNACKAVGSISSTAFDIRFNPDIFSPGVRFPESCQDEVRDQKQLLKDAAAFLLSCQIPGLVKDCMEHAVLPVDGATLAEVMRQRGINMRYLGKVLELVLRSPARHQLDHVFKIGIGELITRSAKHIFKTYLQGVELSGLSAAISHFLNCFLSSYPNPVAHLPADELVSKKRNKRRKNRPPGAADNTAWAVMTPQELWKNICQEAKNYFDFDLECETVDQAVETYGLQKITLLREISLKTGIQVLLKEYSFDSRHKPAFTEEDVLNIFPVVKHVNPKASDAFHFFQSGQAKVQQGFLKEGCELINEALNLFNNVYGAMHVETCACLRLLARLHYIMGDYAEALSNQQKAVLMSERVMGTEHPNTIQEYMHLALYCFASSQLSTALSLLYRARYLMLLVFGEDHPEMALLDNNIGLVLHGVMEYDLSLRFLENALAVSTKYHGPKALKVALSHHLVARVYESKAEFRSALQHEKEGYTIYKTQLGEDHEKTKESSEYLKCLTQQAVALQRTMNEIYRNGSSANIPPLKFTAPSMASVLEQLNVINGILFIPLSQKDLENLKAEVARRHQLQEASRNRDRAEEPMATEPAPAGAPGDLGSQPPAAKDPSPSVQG

B1: FLAG-tagged Clu (Drosophila Clueless) (protein, UniProt A1ZAB5 1-1448)
chain: MALETEAKNSNATATGDATATATKASGKAKENNNTAGGKKNLNPNSNQQNSNQNLVNGNGTAADGPAAKKKGKKNRNKSPTEPTTEAVLSNGHAEKPTVVDAVEDNADTNANVEKPQEGGAPDAEADGDDIDLDALQDIGITVNISSPGADLLCVQLSSMELVQEIHQLLMDREETCHRTCFSLQLDNVTLDNFAELKSINNLEQGSTIKVVEEPYTMREARIHVRHVRDLLKNLDPADAYNGIDCTSLTYLNTITQGDLLDKKRTRPDSVDCTPPEYVTPGVSDPPILPLHPNVKNAKGPQALKVLTTSAWNPPPGPRKLHGDLMYLYVVTMEDKRFHISACSKGFFINQSTDDTFNPKPDNPSHLSHSLIDLLSHISPSFRRAFQTIQKRRTMRHAFERVATPYQVYQWAAPILEHTVDAIRAEDAFSSKLGYEEHIPGQTRDWNEELQTTRELPRKTLPERLLRERAIFKVHGDFVTAATRGAMAVIDGNVLAINPGEDTKMQMFIWNNIFFSMGFDVRDHYKELGGDAAAFVAPRYDLHGVRVYNAVDIEGLYTLGTVVVDYRGYRVTAQSIIPGILEREQEQSVVYGSIDFGKTVLSHPKYLELLRQAGKHLKILPHVVLNERDEPVELCSSVECKGIIGNDGRHYILDLLRTFPPDVNFLKLQDVQLSKELVDMGFPIEHRHKLCCLRQELLEAFIEDRHVNFIRIAAARLQQLTTIKQSEKSEANPVPALEGAEAASKVNGAEKPDDKEKKNEEEEKKERSTSGEARAAAIVNAIREAQSNVATSNEVQAAEVVKRACAAVGSLKEKEFDFRFNPDVFSPGIRHADGEEGTSLAKQKVLVQEAAEFLVLKQIPAFIKEHMSHSSSPIDGQSLTESLHSHGINVRYLGKVIKILSQMPRMDYLHRIAVLELIVRATKHIYYTYMQNTEPLHLSAAISHFLNCLLTNGPVNPAVSSEEAHKKRGNGGKHNKHKSSKGGKGQQQQQTTGNQNGSSSGSSNSSSASDWTLMTPRSLWQQIRKEAKVYWDWELDCDSIETAVSKYGILRISLMRAFCLKVGIQVLLREYNFESKHKPTFGDDDIVNVFPIVKHISPRATDAYNFYTTGQAKIQQGLFKEGYELISGALNLLNNVFGALHQENGSCLRMLARLSYLLGDAQDALAIQQRAVIMSERVNGMDHPSTILEYTHLSLYSFANGHVGMSLKLLYRARYLMVLICGEDHPEVALIDSNISLILHALGEYELSLRFIEHALKLNLKYFGDKDMHVALSYHLMARTQSCMGDFRSALNNEKETYSFYKSQLGENHEKTRDSAECLRLLTQQAVLLQRKMNDIYSSGKLTSDLPPIHITPPSMGSVLDMLNTINGILFVKISRKDIVKVRSEIEKHFKTDSTENEVNDAINSIVAAANNNGEAEDAVSKDIKEQPEAGKQLTNGDKAAATEATSS
binding [1]: binds

B2: PINK1 (positive control in S2 cells) (protein, UniProt Q0KHV6 6-721)
chain: LTVRLIKHGRYILRSYCKRDIHANILDQNQLKTRSKRGFPLPSTAANVLRTTPQQAAKSVVNVVPRTINSPSGSPFNGSGSSPTSSSGIFRVGQHARKLFIDNILSRVTTTYSEDLRQRATRKLFFGDSAPFFALIGVSLASGSGVLSKEDELEGVCWEIREAASRLQNAWNHDEISDTLDSKFTIDDLEIGPPIAKGCAAVVYAADFKKDVASDGASLHTDAQPQATPAFAPNSWSTHEMMSPLQNMSRFVHNFGGSVDNVFHYSQPSAASDFVGAQSREQDQRHHEQQQHQNQEQEQHQNQEPSSSAFNVTSPANSNINSSVDSYPLALKMMFNYDIQSNALSILRAMYKETVPARQRGMNEAADEWERLLQNQTVHLPRHPNIVCMFGFFCDEVRNFPDGHLLYPVAQPQRINPQGYGRNMSLYLLMKRYDHSLRGLLDSQDLSTRNRILLLAQMLEAVNHLSRHGVAHRDLKSDNVLIELQDDAAPVLVLSDFGCCLADKVHGLRLPYVSHDVDKGGNAALMAPEIFNTMPGPFAVLNYGKADLWACGALAYEIFGNRNPFYSSSGGMARERGEMTLSLRNSDYRQDQLPPMSDACPPLLQQLVYNILNPNPSKRVSPDIAANVVQLFLWAPSNWLKAGGMPNSPEILQWLLSLTTKIMCEGRPQMGAGLMPVASCGNRRAYVEYLLICSFLARARLRRIRGALNWIQNVVA
binding [2]: binds

B3: MiD49-Myc (protein, UniProt Q96C03 1-454)
chain: MAEFSQKRGKRRSDEGLGSMVDFLLANARLVLGVGGAAVLGIATLAVKRFIDRATSPRDEDDTKADSWKELSLLKATPHLQPRPPPAALSQPVLPLAPSSSAPEGPAETDPEVTPQLSSPAPLCLTLQERLLAFERDRVTIPAAQVALAKQLAGDIALELQAYFRSKFPELPFGAFVPGGPLYDGLQAGAADHVRLLVPLVLEPGLWSLVPGVDTVARDPRCWAVRRTQLEFCPRGSSPWDRFLVGGYLSSRVLLELLRKALAASVNWPAIGSLLGCLIRPSMASEELLLEVQHERLELTVAVLVAVPGVDADDRLLLAWPLEGLAGNLWLQDLYPVEAARLRALDDHDAGTRRRLLLLLCAVCRGCSALGQLGRGHLTQVVLRLGEDNVDWTEEALGERFLQALELLIGSLEQASLPCHFNPSVNLFSSLREEEIDDIGYALYSGLQEPEGLL
binding [3]: binds

B4: GFP-Mff (protein, UniProt Q9GZY8 1-342)
chain: MSKGTSSDTSLGRVSRAAFPSPTAAEMAEISRIQYEMEYTEGISQRMRVPEKLKVAPPNADLEQGFQEGVPNASVIMQVPERIVVAGNNEDVSFSRPADLDLIQSTPFKPLALKTPPRVLTLSERPLDFLDLERPPTTPQNEEIRAVGRLKRERSMSENAVRQNGQLVRNDSLWHRSDSAPRNKISRFQAPISAPEYTVTPSPQQARVCPPHMLPEDGANLSSARGILSLIQSSTRRAYQQILDVLDENRRPVLRGGSAAATSNPHHDNVRYGISNIDTTIEGTSDDLTVVDAASLRRQIIKLNRRLQLLEEENKERAKREMVMYSITVAFWLLNSWLWFRR
binding [3]: binds
